Values joined by “and” are separate entries in the source; they are usually repeats but may differ in a detail not shown here. Identical values can stand only once. Screen size: about 340,000 compounds; about 6,900 (2%) were called active. Cut-off read from the data, not from the text of the source: active = inhibition above about 30%; inactive = below that, where a call was filed. This is a selection; strong and weak results do not stand in their true shares. The source gives no active or inactive call for entries shown without one.
Target: D(2) dopamine receptor (Homo sapiens) (UniProt P14416)
Test: HTS Assay for Allosteric Antagonists of the Human D2 Dopamine Receptor: Primary Screen for Antagonists; note: 0% is about no effect
Conditions: HEK293 TREx D2 cells, calcium flux, dopamine EC80; at 10 µM; stronger effect = higher value
Summary of the method: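 Tetracycline-induced HEK293 T-REx cells expressing D2 force-coupled to calcium signalling were dye-loaded, exposed to compound for 180 s, then challenged with an EC80 of dopamine; calcium flux was followed kinetically for a further 180 s.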

UniProt P14416, sequence (P14416 whole entry, looked up): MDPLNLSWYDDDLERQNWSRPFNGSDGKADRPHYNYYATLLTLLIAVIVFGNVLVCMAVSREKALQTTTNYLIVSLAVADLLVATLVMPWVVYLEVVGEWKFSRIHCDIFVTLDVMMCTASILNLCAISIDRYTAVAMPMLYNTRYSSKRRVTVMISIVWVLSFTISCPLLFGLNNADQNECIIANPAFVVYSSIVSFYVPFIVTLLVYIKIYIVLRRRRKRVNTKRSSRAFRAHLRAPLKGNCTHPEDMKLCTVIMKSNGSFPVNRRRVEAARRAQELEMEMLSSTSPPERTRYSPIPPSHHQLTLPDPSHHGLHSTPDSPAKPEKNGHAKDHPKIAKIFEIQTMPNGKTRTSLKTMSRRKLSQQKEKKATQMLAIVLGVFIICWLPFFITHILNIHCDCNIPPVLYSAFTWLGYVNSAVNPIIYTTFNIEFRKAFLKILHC

Row | Structure (SMILES) | inhibition
1 | CC1(c2ccc(Cl)cc2)CC(C)(C)N(C(=O)c2ccccc2)c2ccccc21 (stereo unspecified) | 5.34%
2 | Cc1ccc(OCc2nc3ccccc3n2CC(C)C)cc1 | 7.02%
3 | COc1ccc(CCNC(=O)CCn2c(=O)c3cccn3c3ccc(F)cc32)c(OC)c1OC | 5.57%
4 | Cc1nn2c(NCc3ccccn3)c3c(nc2c1-c1ccccc1)CCC3 | active: 40.2%
5 | CCOc1ccccc1CNC(=O)Nc1cn(CC(C)C)c(=O)c2ccccc12 | -8.28%
6 | CCc1ccc(NC(=O)Cn2cnc3sc(C)c(S(=O)(=O)N4CCC(C)CC4)c3c2=O)cc1 | 9.8%
7 | CCCC(=O)NCC(c1ccc2c(c1)OCO2)N1CCN(c2ccc(F)cc2)CC1 (stereo unspecified) | 11.6%
8 | COc1ccc(-n2ncc(C(=O)NCc3ccccc3)c2C2CCN(C(=O)OC(C)(C)C)CC2)cc1 | -2.34%
9 | COc1ccc(-c2nc3c(C#N)c[nH]n3c2NC2CCCCC2)c(OC)c1 | 20.1%
10 | Cc1ccc2[nH]c3nc(N/N=C/c4cccc(O)c4)nnc3c2c1 | active: 36.7%
11 | CCOC(=O)c1c(C)[nH]c(N=Nc2ccccc2)c1C | active: 67.1%
12 | CCOC(=O)C1CCN(C(=O)C2COc3ccccc3C2)CC1 (stereo unspecified) | 1.14%
13 | Cc1ccc(OCCCn2c(C3CC(=O)N(c4cccc(Cl)c4)C3)nc3ccccc32)c(C)c1 (stereo unspecified) | 0.789%
14 | COc1cc(CC(=O)N/N=C/c2ccccc2)c([N+](=O)[O-])cc1OC | active: 77%
15 | CN1/C(=C\C=C2/C(=O)Oc3ccccc3C2=O)C(C)(C)c2ccccc21 | active: 68.1%
16 | O=C(CSc1nccn1Cc1ccc(Cl)cc1)NC1CCCC1 | -0.458%
17 | Cc1ccc(CN2CCSc3ccc(C(=O)N4CCN(c5cccc(C)c5C)CC4)cc32)cc1 | 3.42%
18 | O=C(c1cc2ccccc2oc1=O)N(Cc1cccc(Cl)c1)C1CCS(=O)(=O)C1 (stereo unspecified) | 13.5%
19 | CC(=O)c1ccc(N2CCN(C(=O)C3CCN(S(=O)(=O)c4cccc5nonc45)CC3)CC2)cc1 | 4.81%
20 | O=c1c2c3c(sc2nnn1Cc1ccc(Br)cc1)CCCC3 | 4.88%
21 | O=S(=O)(NCCc1csc(-c2ccc(F)cc2)n1)c1ccc(Cl)cc1 | 23.8%
22 | CCOC(=O)c1ccc(NC(=O)CCc2c(C)nc3c(c(C)nn3C)c2C)cc1 | -2.73%
23 | CCOc1ccccc1NC(=O)Cn1c(=O)ccc2cc(S(=O)(=O)N3CCC(C)CC3)ccc21 | -2.67%
24 | CCN(C(=O)Cc1c(C(=O)O)[nH]c2ccccc12)c1ccc(OC)cc1 | 2.34% and active: 53.3%

Row | Structure (SMILES) | inhibition
25 | Cc1ccc(Cl)cc1NC(=O)c1ccc(-c2nc(CSc3ccccc3)c(C)o2)cc1 | 10.2%
26 | CCC(=O)N1c2ccccc2CC1C(=O)N1CCN(c2ccccc2)CC1 (stereo unspecified) | -2.79%
27 | CCc1ccc(CN(C(=O)c2nc(SC)ncc2Cl)C2CCS(=O)(=O)C2)cc1 (stereo unspecified) | -7.27%
28 | CC(C)Cc1nn2c(=O)cc(COC(=O)c3ccc(NC(=O)c4cccs4)cc3)nc2s1 | 0.716%
29 | CCOC(=O)c1ccc(NC(=O)CC2C(=O)N(c3ccccc3)C(=O)N2Cc2cccs2)cc1 (stereo unspecified) | -1.06%
30 | Cc1ccc2c(CNCCc3ccc(Cl)cc3)c(C(=O)O)n(Cc3ccc(F)cc3)c2c1 | -0.572%
31 | COc1ccc(N2CCN(CC(O)COc3ccc(C(C)(C)C)cc3)CC2)cc1 (stereo unspecified) | 9.36%
32 | Cc1ccc(S(=O)(=O)c2[nH]c(-c3ccccc3)nc2SCC(=O)O)cc1 | 15.1%
33 | O=C(CCNC(=O)N1CC(=O)Nc2ccccc21)NCc1ccc(F)cc1 | active: 51.6%
34 | O=c1c2sc3ccccc3c2n(Cc2ccccc2)c(=O)n1Cc1ccccc1 | 0.11%
35 | CCOc1ccc(CNC(=O)c2ccc3nc(Cc4ccc(OC)cc4)oc3c2)cc1OC | 3.01%
36 | CCOC(=O)C1CCCN(S(=O)(=O)c2ccc3[nH]c(=O)ccc3c2)C1 (stereo unspecified) | -24%
37 | Cc1ccc(S(=O)(=O)NCc2nc3nc(C)cc(C)n3n2)c(C)c1 | 5.74%
38 | CCCC(=O)Nc1ccc(C(=O)COC(=O)c2cc(C)oc2C)cc1 | active: 34.8%
39 | CCOC(=O)c1ccccc1NC(=O)CSc1nc2ncccc2[nH]1 | -1.31%
40 | CCN1c2ccccc2-c2nc(SCC(=O)Nc3ccc(C)c(Cl)c3)ncc2S1(=O)=O | 4.09%
41 | COc1ccc(N2CCN(C(=O)CCS(=O)(=O)c3cc4c(cc3Cl)NC(=O)CO4)CC2)cc1 | 8.01%
42 | CC(=O)c1cc(C(=O)Nc2cccc(C)c2)c2ccccn12 | -3.62%
43 | COc1ccc(-c2nnn3c2nc(N2CCCC(C)C2)c2ccccc23)cc1 (stereo unspecified) | -7.63%
44 | Cc1ccc(C)c(N(C)C(=O)C2CCN(S(=O)(=O)c3cccc4nsnc34)CC2)c1 | -0.934%
45 | Cc1noc(-c2ccccc2OCC(=O)Nc2cccc([N+](=O)[O-])c2)n1 | 2.39%
46 | CC(=O)c1ccc(N2CCN(C(=O)NCc3noc4ccc(C)cc34)CC2)cc1 | -14%
47 | Cc1ccccc1NC(=O)CC1C(=O)NCCN1C(=O)c1cccc(Cl)c1 (stereo unspecified) | -5.49%
48 | COC(=O)CCc1sc(Nc2ccc(OC)cc2)nc1-c1ccc(OC)cc1 | -11.6%

Row | Structure (SMILES) | inhibition
49 | Cc1ccc2cc(CN(CC3CCCO3)C(=S)NCc3ccco3)c(=O)[nH]c2c1C (stereo unspecified) | active: 33.2%
50 | Cc1cc(C)cc(NC(=O)C2CCN(S(=O)(=O)c3cccc4nonc34)CC2)c1 | 4.75%
51 | COc1ccc(CNC(=O)Nc2cn(CC(C)C)c(=O)c3ccccc23)c(OC)c1 | -11.4%
52 | O=C(Nc1ccccc1N1CCN(C(=O)c2ccccc2)CC1)c1cc2ccccc2o1 | active: 62.9%
53 | CCCn1cc(SCC(N)=O)c2ccccc21 | active: 31.1%
54 | CC(C)=CCN1CCN(Cc2cccn2-c2ccccn2)CC1CCO (stereo unspecified) | active: 98.6%
55 | CCC(Oc1ccccc1)C(=O)Nc1nnc(S(=O)(=O)Nc2ccccc2)s1 (stereo unspecified) | -21.8%
56 | CCc1ccc(CNC(=O)c2ccc(CSc3nc4ccncc4n3Cc3ccccc3)cc2)cc1 | -6.72%
57 | COCCNC(=O)CCC(=O)NNc1nc2ccccc2c2nc(-c3ccccc3)nn12 | 9.32%
58 | CCOc1ccccc1OCCCNCc1ccccc1 | active: 50%
59 | Clc1ccccc1-c1nc(Nc2ccccc2)nc2ccc(Br)cc12 | 2.78%
60 | Cc1ccc(NC(=O)N2CCC(n3c(C)nc4cccnc43)CC2)c(Cl)c1 | -6.69%
61 | CCOc1ccc(NC(=O)CSc2ncc3c(n2)-c2ccccc2N(C)S3(=O)=O)cc1 | 3.59%
62 | COc1ccccc1NC(=O)Cn1c(=O)n(-c2cccc(C(C)=O)c2)c(=O)c2c3c(sc21)CN(C(C)=O)CC3 | 17.5%
63 | O=C1CC(c2nc3ccccc3[nH]2)CN1c1cccc(C(F)(F)F)c1 (stereo unspecified) | active: 32.9%
64 | CCN1CCN(C(=O)c2cnn(-c3ccc(F)cc3)c2-n2cccc2)CC1 | -20.9%
65 | Cc1ccc(C2C=C(c3ccc(Cl)cc3)Nc3nc(NS(=O)(=O)c4ccccc4)nn32)cc1 (stereo unspecified) | -6.06%
66 | O=C(CCC1N=C2c3ccccc3N=C(SCC(=O)Nc3ccccc3F)N2C1=O)NCc1ccccc1 (stereo unspecified) | 5.93%
67 | O=c1nc2sc3ccccc3n2c(=O)n1-c1ccc(Cl)c(Cl)c1 | 8.24%
68 | O=C1c2[nH]nc(-c3ccccc3O)c2C(c2ccc(Cl)cc2)N1Cc1ccco1 (stereo unspecified) | -0.915%
69 | c1ccc2c(NC3CCCC3)nnc(NC3CCCC3)c2c1 | active: 49.2%
70 | CCOCCCNC(=O)NC(C)c1c(-n2cccc2)sc2c1CCN(CC)C2 (stereo unspecified) | 6.33%
71 | COc1cc(C=O)cc(Br)c1OCC(N)=O | active: 34.2%
72 | O=C(CCc1nc(CN2CCN(S(=O)(=O)c3ccc(F)cc3)CC2)no1)N1CCCCC1 | 0.471%

Row | Structure (SMILES) | inhibition
73 | CCc1ccc(-n2c(SCc3ccccc3F)nc3[nH]ncc3c2=O)cc1 | -16%
74 | O=C(c1ccc2c(c1)N(Cc1ccccc1F)C(=O)c1ccccc1S2(=O)=O)N1CCCCC1 | -11.6%
75 | COc1cccc(NC(=O)CSC2=Nc3ccccc3N=C(c3ccc(F)cc3)C2)c1 | 17%
76 | CCc1ccc(C(=O)c2cn(CC(=O)NCCc3ccc(OC)c(OC)c3)c3nc(C)ccc3c2=O)cc1 | 2.33%
77 | CC(=O)N1CCN(c2ccccc2NC(=O)c2ccc3ccccc3c2)CC1 | active: 46.3%
78 | COc1cccc(NC(=O)CSC2=Nc3ccccc3C3=NC(CC(=O)NCCc4ccccc4)C(=O)N23)c1 (stereo unspecified) | 4.61%
79 | Cc1ccc(CNC(=O)CCCCn2c(=O)c3ccccc3n(Cc3c(C)cc(C)cc3C)c2=O)cc1 | -15.8%
80 | CCOC(=O)c1ccccc1NC(=O)Cn1c(=O)n(Cc2nc(-c3ccccc3)no2)c(=O)c2ccccc21 | 5.03%
81 | COc1ccccc1N1CCN(C(=O)Cn2ncc3c([nH]c4ccccc43)c2=O)CC1 | 3.87%
82 | Cc1ccc(C)n1-c1c(C(=O)NCCC(C)C)sc2ncccc12 | 20.3%
83 | COCCc1nn2c(=O)cc(COC(=O)c3ccc(OC)c(OC)c3)nc2s1 | 6.49%
84 | Cc1oc2ncn(CC(C)C)c(=O)c2c1C(=O)N1CCN(c2cccc(C(F)(F)F)c2)CC1 | 1.86%
85 | CCOC(=O)C1CCN(C(=O)Cn2c(=O)cc(C)c3c(C)nn(C)c32)CC1 | 6.45%
86 | CCc1nn(-c2ccccc2)c2nc(-c3cccc(OC)c3)c3cc(OC)c(OC)cc3c12 | 0.113%
87 | COc1cc(-c2nc3nc[nH]n3c2Nc2ccc(C(C)C)cc2)ccc1O | 11.5%
88 | CN(Cc1cccc(C(F)(F)F)c1)C(=O)C1CCC(=O)N(CC2CCCCC2)C1 (stereo unspecified) | active: 30.9%
89 | OC(COc1ccc(Br)cc1)CN1CCN(c2ccccc2)CC1 (stereo unspecified) | active: 81.2%
90 | CCOC(=O)c1c(N)n(-c2cccc(OC)c2)c2nc3ccccc3nc12 | 7.44%
91 | O=[N+]([O-])c1cccc(NC(=S)NCCc2ccccc2)c1 | active: 79.7%
92 | Cc1noc(C)c1C(=O)NCC1COc2ccccc2O1 (stereo unspecified) | active: 42%
93 | COc1ccc(C(=O)NCCn2cc(SCC(=O)Nc3cccc(C)c3)c3ccccc32)cc1 | 12.7%
94 | CCOc1ccc(NC(=O)C(NS(=O)(=O)c2cccc3nsnc23)c2ccccc2)cc1 (stereo unspecified) | 9.18%
95 | O=C(NC1CCCCC1)c1cc2c(Cl)nc3ccccc3c2s1 | 22.7%
96 | COc1ccccc1CNC(=O)C(=O)NCC(c1ccco1)S(=O)(=O)c1cccs1 (stereo unspecified) | 13.1%

From PubChem BioAssay AID485344 (National Center for Advancing Translational Sciences (NCATS), 2010)
